# Hit rate of the full screen: of about 110,000 compounds, about 230 (0.21%) showed an effect of 50% or more. This is one part of the list.
# Target: DPAP1 (Plasmodium falciparum, UniProt Q8IIJ9)
# Experiment: primary screen, percent inhibition; read by cleavage of a fluorogenic dipeptide substrate; higher = more effect of the substance
# Design: species or system P. falciparum D10 trophozoite lysates; single well
# 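Note: 30 min substrate incubation versus DMSO and 10 µM JCP410 controls.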
# DPAP1, sequence (Q8IIJ9 whole entry, looked up): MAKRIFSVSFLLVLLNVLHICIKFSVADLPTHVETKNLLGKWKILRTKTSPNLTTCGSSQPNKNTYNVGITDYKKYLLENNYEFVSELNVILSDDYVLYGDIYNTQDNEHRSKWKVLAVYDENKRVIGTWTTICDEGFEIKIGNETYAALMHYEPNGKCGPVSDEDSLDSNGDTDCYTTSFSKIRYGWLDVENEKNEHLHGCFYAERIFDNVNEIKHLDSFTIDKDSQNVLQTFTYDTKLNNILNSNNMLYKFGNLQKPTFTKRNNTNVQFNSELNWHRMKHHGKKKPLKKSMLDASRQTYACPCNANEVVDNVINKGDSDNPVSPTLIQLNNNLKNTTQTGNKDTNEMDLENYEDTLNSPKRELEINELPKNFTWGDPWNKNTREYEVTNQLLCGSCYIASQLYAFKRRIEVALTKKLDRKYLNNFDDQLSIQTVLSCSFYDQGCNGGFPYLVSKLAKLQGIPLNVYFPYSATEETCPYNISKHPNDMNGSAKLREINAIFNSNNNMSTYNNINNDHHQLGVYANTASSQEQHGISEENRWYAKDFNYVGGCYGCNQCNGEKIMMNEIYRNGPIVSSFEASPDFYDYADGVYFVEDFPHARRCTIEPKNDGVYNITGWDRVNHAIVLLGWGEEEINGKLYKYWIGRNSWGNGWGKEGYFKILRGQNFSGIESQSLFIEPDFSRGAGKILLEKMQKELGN
row,SMILES,% Inhibition @ 10 uM [%]
1,O=C(O)c1ccccc1C(=O)OCc1ccccc1,5.98
2,CCOc1ccc(CNC(=O)C2CCCN(S(=O)(=O)N3CCC(C)CC3)C2)cc1OC (centres unmarked),0.387
3,CC1=NCCn2cccc21,-0.128
4,CC(C)=C1C2C=CC1C1C(=O)N(c3cccc4ccccc34)C(=O)C21 (centres unmarked),-0.413
5,O=C1/C(=C/c2ccc3nccnc3c2)CC/C1=C\c1ccc2nccnc2c1,-0.503
6,O=C(NCCc1ccccc1)C1CCN(S(=O)(=O)c2cccc3nonc23)CC1,-5.88
7,O=C(Nc1ccccc1F)c1ccc([N+](=O)[O-])o1,3.47
8,Cn1c(C(F)(F)F)nc2ccccc21,-2.37
9,O=C(CC(NCc1ccccc1)c1ccccc1O)NCc1ccccc1 (centres unmarked),12
10,Cc1ccnc(SCC(=O)N2CCC(c3c[nH]c4ccccc34)(c3c[nH]c4ccccc34)CC2)n1,4.22
11,COc1ccc(Cl)cc1S(=O)(=O)N1CCC(c2nnc(-c3ccc(C)cc3)o2)CC1,17.7
12,CCc1ccc(CN(C(=O)c2cc(=O)c3cc(C)c(C)cc3o2)C2CCS(=O)(=O)C2)cc1 (centres unmarked),-1.47
13,CCN(CC)c1ccc(NC(=O)C2CCCCC2)cc1,0.83
14,CCOc1ccc2[nH]c(SCc3c(F)c(F)c(F)c(F)c3F)nc2c1,-0.129
15,Clc1cccc(N2CCN(Cc3ccc4c(c3)OCO4)CC2)c1,-0.127
16,COc1ccc(OCCNC(=O)Nc2cc(F)c(F)cc2Cl)cc1,-3.04
17,CCN1c2ccccc2C(c2ccccc2)=C(C(N)=O)C1C (centres unmarked),-5.3
18,CCOC(=O)c1cc(-c2ccc(C)cc2)n(CCC(=O)NCc2cccnc2)c1C,3.32
19,O=C(CSc1ccccc1C(=O)O)c1ccc(Cl)cc1,-2.58
20,CCCc1nc(C)cc(N2CCC(C)CC2)n1,-2.88
21,O=C(O)c1ccccc1C(=O)N1CCN(C(=O)c2ccccc2C(=O)O)CC1,-1.4
22,CC(NC(=O)Cn1ccc2cc(S(=O)(=O)N3CCCC3)ccc21)c1ccccc1 (centres unmarked),-1.26

row,SMILES,% Inhibition @ 10 uM [%]
1,O=C(C1CC2CCC1C2)N1CCN(c2cccc(C(F)(F)F)c2)CC1 (centres unmarked),3.32
2,Cc1ccc(N2C(=O)N(c3ccccc3C)C3CS(=O)(=O)CC32)cc1 (centres unmarked),3.86
3,c1ccc2c(c1)CCCC2NCc1c[nH]c2ccccc12 (centres unmarked),-5.48
4,N#C/C(=C\c1cccs1)c1nc(-c2ccccc2)cs1,-1.97
5,c1ccc(-c2cc(NCCN3CCOCC3)n3c(n2)nc2ccccc23)cc1,0.635
6,O=C(N/C(=C\c1ccco1)C(=O)N1CCOCC1)c1ccco1,7.1
7,Cc1cc(/C=C2\SC(=O)N(C)C2=O)c(C)n1-c1cccc(C(=O)O)c1,0.484
8,Cn1c(CCCNC(=O)c2ccc(Cl)cc2)nc2ccccc21,-2.01
9,CC1C(CN2CCOCC2)=C(c2ccccc2)Oc2ccccc21 (centres unmarked),-4.43
10,CCOc1ccccc1NC(=O)C1=C(C)NC(=O)NC1c1ccccc1OC (centres unmarked),-4.39
11,CCCCO/C(O)=C1\C(C)=NC2=C(C(=O)CCC2)C1c1cccc(Cl)c1Cl (centres unmarked),7.58
12,COc1cc(C(=O)N2CCN(C(=O)COc3ccc(Cl)cc3)CC2)cc(OC)c1OC,-1.6
13,Cc1ccc2n1CCn1cc(-c3ccccc3)cc1-2,2.94
14,CCCCN(C)C(=O)c1ccc(Br)o1,-0.294
15,Cc1noc(C)c1S(=O)(=O)NC1CCCCCC1,-6.91
16,COc1ccc(S(=O)(=O)Nn2cnnc2)cc1,0.736
17,O=[N+]([O-])c1ccc(N2CCCC2)c(Cl)c1,0.00784
18,NS(=O)(=O)c1ccc(CCNC(=O)CN2C(=O)c3ccccc3C2=O)cc1,-9.24
19,CC(NC1CCN(CCc2ccccc2)CC1)c1ccc(F)cc1 (centres unmarked),-3.15
20,Cc1ccc(CNC(=O)c2ccccc2C(=O)NCc2ccc(C)cc2)cc1,0.389
21,O=C(NCCCN1CCCC1=O)c1cc2c(s1)-c1ccccc1OC2,-1.37
22,CCCNC(=O)C(Sc1ccccc1)c1ccccc1 (centres unmarked),-2.8

row,SMILES,% Inhibition @ 10 uM [%]
1,CC(C)(C)c1cc(-c2cc(C(C)(C)C)[nH]n2)[nH]n1,4.17
2,CCOC(=O)c1nn(-c2ccc(F)c(Cl)c2)cc1O,0.147
3,Cc1nn(CC(=O)N2CCCCCC2)c(=O)c2cc3sccc3n12,-5.19
4,Cc1nc2sccn2c(=O)c1S(=O)(=O)NCC(C)c1ccccc1 (centres unmarked),2
5,COc1ccc(C2CC3=Nc4ccccc4NC(c4cccs4)C3=C(O)C2)cc1OC (centres unmarked),2.36
6,COc1ccccc1-c1coc2cc(OCc3cc(Cl)cc4c3OCOC4)ccc2c1=O,-1.11
7,Cc1ccc(S(=O)(=O)c2cnc(SCC(=O)NCc3ccccc3)nc2N)cc1,2.75
8,Clc1ccc(-c2nnc(-c3ccc(-c4ccccc4)cc3)o2)cc1,-8.01
9,CCN(CC)CCC(=O)NC(C)(C)Cc1ccc(O)cc1,-0.703
10,CN1C(=O)C2Cc3c([nH]c4ccccc34)C(c3ccccc3)N2C1=S (centres unmarked),3.58
11,Cn1c(=O)c2c(ncn2CC(=O)Nc2nnc(CC(C)(C)C)s2)n(C)c1=O,3.54
12,CCN(CC)c1ccc(C2C3=C(O)CC(C)(C)CC3=Nc3ccccc3N2C(=O)C(C)C)cc1 (centres unmarked),-0.267
13,Cc1oc(-c2ccc(Cl)cc2)nc1CS(=O)CC(=O)NCc1ccccn1 (centres unmarked),-1.05
14,CCSc1nnc(NC(=O)c2cc(=O)c3ccc(C)c(C)c3o2)s1,5.06
15,CN1CCC(N(C)CC2CC=CCC2)CC1 (centres unmarked),3.15
16,CC(C)(C)c1ccc(C(=O)O/N=C(\N)Cc2cccs2)cc1,-6.95
17,Nc1ccc2nc(O)nc(-c3ccccc3)c2c1,-3.85
18,COc1cc(C(=O)NC2(C(F)(F)F)C(=O)Nc3c2c(=O)n(C)c(=O)n3C)cc(OC)c1OC (centres unmarked),-5.2
19,O=C(NCCCc1ccccc1)C(Cc1ccccc1)N1Cc2ccccc2C1=O (centres unmarked),3.87
20,O=C(O)c1c(CNCCCc2ccccc2)c2ccccc2n1Cc1ccccc1F,-1.44
21,O=C(CCc1nnc2n(CCc3ccccc3)c(=O)c3ccccc3n12)NCc1ccco1,-2.42

# Source: PMC6919601, “Identification of Plasmodium dipeptidyl aminopeptidase allosteric inhibitors by high throughput screening” (PLoS ONE, 2019)
